The other results are listed elsewhere or left out.
Key:
Assay in all cases: glycan array binding signal (z-score within array); higher = stronger binding
Conditions in all cases: glycan notation: IUPAC condensed, linker removed
[1] = target: Fuc(a1-2)[GalNAc(a1-3)]Gal(b1-4)GlcNAc(b1-6)GalNAc
How it was run: (§1)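 Columns mapping to the same glycan were averaged after glycan names were converted to IUPAC-condensed notation. The data come from 3228 arrays in the Consortium for Functional Glycomics database, limited to those with an available protein sequence. Binding is reported as a within-array Z-score averaged across arrays of one protein sequence and across linkers.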

[2] = target: Fuc(a1-2)[GalNAc(a1-3)]Gal(b1-4)[Fuc(a1-3)]GlcNAc
How it was run: as §1

[3] = target: Fuc(a1-2)[GalNAc(a1-3)]Gal(b1-4)[Fuc(a1-3)]GlcNAc(b1-3)GalNAc
How it was run: as §1

[4] = target: Fuc(a1-2)[GalNAc(a1-4)]Gal(b1-4)GlcNAc
How it was run: as §1

[5] = target: Fuc(a1-2)[GalNAc(b1-3)]Gal
How it was run: as §1

Fuc(a1-3)GlcNAc = target: Fuc(a1-3)GlcNAc
How it was run: as §1

[6] = target: Fuc(a1-3)[Gal(b1-4)]Glc6S
How it was run: as §1

[7] = target: Fuc(a1-3)[Gal(b1-4)]GlcNAc
How it was run: as §1

[8] = target: Fuc(a1-3)[Gal(b1-4)]GlcNAc(b1-2)Man
How it was run: as §1

[9] = target: Fuc(a1-3)[Gal(b1-4)]GlcNAc(b1-2)Man(a1-3)[Fuc(a1-3)[Gal(b1-4)]GlcNAc(b1-2)Man(a1-6)]Man(b1-4)GlcNAc(b1-4)GlcNAc
How it was run: as §1

[10] = target: Fuc(a1-3)[Gal(b1-4)]GlcNAc(b1-2)Man(a1-3)[Fuc(a1-3)[Gal(b1-4)]GlcNAc(b1-2)Man(a1-6)]Man(b1-4)GlcNAc(b1-4)[Fuc(a1-6)]GlcNAc
How it was run: as §1

[11] = target: Fuc(a1-3)[Gal(b1-4)]GlcNAc(b1-3)Gal(b1-3)[Fuc(a1-4)]GlcNAc
How it was run: as §1

[12] = target: Fuc(a1-3)[Gal(b1-4)]GlcNAc(b1-3)Gal(b1-4)[Fuc(a1-3)]GlcNAc
How it was run: as §1

[13] = target: Fuc(a1-3)[Gal(b1-4)]GlcNAc(b1-3)Gal(b1-4)[Fuc(a1-3)]GlcNAc(b1-3)Gal(b1-4)[Fuc(a1-3)]GlcNAc
How it was run: as §1

[14] = target: Fuc(a1-3)[Gal(b1-4)]GlcNAc(b1-3)GalNAc
How it was run: as §1

[15] = target: Fuc(a1-3)[Gal(b1-4)]GlcNAc(b1-4)Gal(b1-4)[Fuc(a1-3)]GlcNAc
How it was run: as §1

[16] = target: Fuc(a1-3)[Gal(b1-4)]GlcNAc(b1-4)Gal(b1-4)[Fuc(a1-3)]GlcNAc(b1-4)Gal(b1-4)[Fuc(a1-3)]GlcNAc
How it was run: as §1

[17] = target: Fuc(a1-3)[Gal(b1-4)]GlcNAc(b1-6)GalNAc
How it was run: as §1

[18] = target: Fuc(a1-3)[Gal(b1-4)]GlcNAc(b1-6)[Gal(b1-3)GlcNAc(b1-3)]Gal(b1-4)Glc
How it was run: as §1

[19] = target: Fuc(a1-3)[Gal(b1-4)]GlcNAc(b1-6)[Neu5Ac(a2-3)Gal(b1-3)]GalNAc
How it was run: as §1

[20] = target: Fuc(a1-3)[Gal(b1-4)]GlcNAc6S
How it was run: as §1

[21] = target: Fuc(a1-3)[Gal3S(b1-4)]Glc
How it was run: as §1

[22] = target: Fuc(a1-3)[Gal3S(b1-4)]GlcNAc
How it was run: as §1

[23] = target: Fuc(a1-3)[Gal3S(b1-4)]GlcNAc6S
How it was run: as §1

[24] = target: Fuc(a1-3)[GalNAc(b1-4)]GlcNAc
How it was run: as §1

[25] = target: Fuc(a1-3)[GalNAc(b1-4)]GlcNAc6S
How it was run: as §1

Fuc(a1-4)GlcNAc = target: Fuc(a1-4)GlcNAc
How it was run: as §1

Fuc(b1-3)GlcNAc = target: Fuc(b1-3)GlcNAc
How it was run: as §1

Gal(a1-2)Gal = target: Gal(a1-2)Gal
How it was run: as §1

Gal(a1-3)Gal = target: Gal(a1-3)Gal
How it was run: as §1

Gal(a1-3)Gal(b1-3)GlcNAc = target: Gal(a1-3)Gal(b1-3)GlcNAc
How it was run: as §1

[26] = target: Gal(a1-3)Gal(b1-3)GlcNAc(b1-2)Man
How it was run: as §1

[27] = target: Gal(a1-3)Gal(b1-3)GlcNAc(b1-2)Man(a1-3)[Gal(a1-3)Gal(b1-3)GlcNAc(b1-2)Man(a1-6)]Man(b1-4)GlcNAc(b1-4)GlcNAc
How it was run: as §1

[28] = target: Gal(a1-3)Gal(b1-3)GlcNAc(b1-3)GalNAc
How it was run: as §1

[29] = target: Gal(a1-3)Gal(b1-3)GlcNAc(b1-6)GalNAc
How it was run: as §1

[30] = target: Gal(a1-3)Gal(b1-3)[Fuc(a1-4)]GlcNAc(b1-2)Man(a1-3)[Gal(a1-3)Gal(b1-3)[Fuc(a1-4)]GlcNAc(b1-2)Man(a1-6)]Man(b1-4)GlcNAc(b1-4)GlcNAc
How it was run: as §1

Gal(a1-3)Gal(b1-4)Glc = target: Gal(a1-3)Gal(b1-4)Glc
How it was run: as §1

Gal(a1-3)Gal(b1-4)GlcNAc = target: Gal(a1-3)Gal(b1-4)GlcNAc
How it was run: as §1

[31] = target: Gal(a1-3)Gal(b1-4)GlcNAc(b1-2)Man
How it was run: as §1

[32] = target: Gal(a1-3)Gal(b1-4)GlcNAc(b1-2)Man(a1-3)[Gal(a1-3)Gal(b1-4)GlcNAc(b1-2)Man(a1-6)]Man(b1-4)GlcNAc(b1-4)GlcNAc
How it was run: as §1

[33] = target: Gal(a1-3)Gal(b1-4)GlcNAc(b1-3)GalNAc
How it was run: as §1

[34] = target: Gal(a1-3)Gal(b1-4)GlcNAc(b1-6)GalNAc
How it was run: as §1

[35] = target: Gal(a1-3)Gal(b1-4)[Fuc(a1-3)]GlcNAc
How it was run: as §1

[36] = target: Gal(a1-3)Gal(b1-4)[Fuc(a1-3)]GlcNAc(b1-2)Man(a1-3)[Gal(a1-3)Gal(b1-4)[Fuc(a1-3)]GlcNAc(b1-2)Man(a1-6)]Man(b1-4)GlcNAc(b1-4)GlcNAc
How it was run: as §1

Gal(a1-3)GalNAc = target: Gal(a1-3)GalNAc
How it was run: as §1

[37] = target: Gal(a1-3)[Gal(a1-4)]Gal(b1-4)GlcNAc
How it was run: as §1

[38] = target: Gal(a1-4)Gal(b1-3)GlcNAc(b1-2)Man(a1-3)[Gal(a1-4)Gal(b1-3)GlcNAc(b1-2)Man(a1-6)]Man(b1-4)GlcNAc(b1-4)GlcNAc
How it was run: as §1

Gal(a1-4)Gal(b1-4)Glc = target: Gal(a1-4)Gal(b1-4)Glc
How it was run: as §1

Gal(a1-4)Gal(b1-4)GlcNAc = target: Gal(a1-4)Gal(b1-4)GlcNAc
How it was run: as §1

[39] = target: Gal(a1-4)Gal(b1-4)GlcNAc(b1-2)Man(a1-3)[Gal(a1-4)Gal(b1-4)GlcNAc(b1-2)Man(a1-6)]Man(b1-4)GlcNAc(b1-4)GlcNAc
How it was run: as §1

[40] = target: Gal(a1-4)Gal(b1-4)GlcNAc(b1-3)Gal(b1-4)Glc
How it was run: as §1

Gal(a1-4)GlcNAc = target: Gal(a1-4)GlcNAc
How it was run: as §1

Gal(a1-6)Glc = target: Gal(a1-6)Glc
How it was run: as §1

Gal(b1-2)Gal = target: Gal(b1-2)Gal
How it was run: as §1

Gal(b1-3)Gal = target: Gal(b1-3)Gal
How it was run: as §1

Gal(b1-3)Gal(b1-4)GlcNAc = target: Gal(b1-3)Gal(b1-4)GlcNAc
How it was run: as §1

[41] = target: Gal(b1-3)Gal(b1-4)GlcNAc(b1-2)Man(a1-3)[Gal(b1-3)Gal(b1-4)GlcNAc(b1-2)Man(a1-6)]Man(b1-4)GlcNAc(b1-4)GlcNAc
How it was run: as §1

Gal(b1-3)GalNAc = target: Gal(b1-3)GalNAc
How it was run: as §1

[42] = target: Gal(b1-3)GalNAc(a1-3)[Fuc(a1-2)]Gal(b1-4)Glc
How it was run: as §1

[43] = target: Gal(b1-3)GalNAc(a1-3)[Fuc(a1-2)]Gal(b1-4)GlcNAc
How it was run: as §1

B1: Siglec-F (Mus musculus), Q920G3 (protein)
chain: MRWAWLLPLLWAGCLATDGYSLSVTGSVTVQEGLCVFVACQVQYPNSKGPVFGYWFREGANIFSGSPVATNDPQRSVLKEAQGRFYLMGKENSHNCSLDIRDAQKIDTGTYFFRLDGSVKYSFQKSMLSVLVIALTEVPNIQVTSTLVSGNSTKLLCSVPWACEQGTPPIFSWMSSALTSLGHRTTLSSELNLTPRPQDNGTNLTCQVNLPGTGVTVERTQQLSVIYAPQKMTIRVSWGDDTGTKVLQSGASLQIQEGESLSLVCMADSNPPAVLSWERPTQKPFQLSTPAELQLPRAELEDQGKYICQAQNSQGAQTASVSLSIRSLLQLLGPSCSFEGQGLHCSCSSRAWPAPSLRWRLGEGVLEGNSSNGSFTVKSSSAGQWANSSLILSMEFSSNHRLSCEAWSDNRVQRATILLVSGPKVSQAGKSETSRGTVLGAIWGAGLMALLAVCLCLIFFTVKVLRKKSALKVAATKGNHLAKNPASTINSASITSSNIALGYPIQGHLNEPGSQTQKEQPPLATVPDTQKDEPELHYASLSFQGPMPPKPQNTEAMKSVYTEIKIHKC
- glycan array binding signal (z-score) [1]: -0.165
- glycan array binding signal (z-score) [2]: -0.058
- glycan array binding signal (z-score) [3]: -0.018
- glycan array binding signal (z-score) [4]: 0.045
- glycan array binding signal (z-score) [5]: -0.038
- glycan array binding signal (z-score) (Fuc(a1-3)GlcNAc): -0.129
- glycan array binding signal (z-score) [6]: -0.08
- glycan array binding signal (z-score) [7]: -0.117
- glycan array binding signal (z-score) [8]: -0.137
- glycan array binding signal (z-score) [9]: 0.004
- glycan array binding signal (z-score) [10]: -0.093
- glycan array binding signal (z-score) [11]: -0.123
- glycan array binding signal (z-score) [12]: -0.096
- glycan array binding signal (z-score) [13]: -0.115
- glycan array binding signal (z-score) [14]: 0.006
- glycan array binding signal (z-score) [15]: -0.061
- glycan array binding signal (z-score) [16]: -0.121
- glycan array binding signal (z-score) [17]: -0.109
- glycan array binding signal (z-score) [18]: -0.102
- glycan array binding signal (z-score) [19]: -0.088
- glycan array binding signal (z-score) [20]: 0.026
- glycan array binding signal (z-score) [21]: -0.146
- glycan array binding signal (z-score) [22]: -0.127
- glycan array binding signal (z-score) [23]: -0.114
- glycan array binding signal (z-score) [24]: -0.106
- glycan array binding signal (z-score) [25]: -0.152
- glycan array binding signal (z-score) (Fuc(a1-4)GlcNAc): -0.106
- glycan array binding signal (z-score) (Fuc(b1-3)GlcNAc): -0.128
- glycan array binding signal (z-score) (Gal(a1-2)Gal): -0.117
- glycan array binding signal (z-score) (Gal(a1-3)Gal): -0.121
- glycan array binding signal (z-score) (Gal(a1-3)Gal(b1-3)GlcNAc): -0.111
- glycan array binding signal (z-score) [26]: -0.106
- glycan array binding signal (z-score) [27]: -0.044
- glycan array binding signal (z-score) [28]: -0.004
- glycan array binding signal (z-score) [29]: -0.127
- glycan array binding signal (z-score) [30]: 0.029
- glycan array binding signal (z-score) (Gal(a1-3)Gal(b1-4)Glc): -0.117
- glycan array binding signal (z-score) (Gal(a1-3)Gal(b1-4)GlcNAc): -0.12
- glycan array binding signal (z-score) [31]: -0.16
- glycan array binding signal (z-score) [32]: 0.127
- glycan array binding signal (z-score) [33]: -0.073
- glycan array binding signal (z-score) [34]: -0.146
- glycan array binding signal (z-score) [35]: -0.123
- glycan array binding signal (z-score) [36]: -0.109
- glycan array binding signal (z-score) (Gal(a1-3)GalNAc): -0.12
- glycan array binding signal (z-score) [37]: 0.037
- glycan array binding signal (z-score) [38]: 0.083
- glycan array binding signal (z-score) (Gal(a1-4)Gal(b1-4)Glc): -0.107
- glycan array binding signal (z-score) (Gal(a1-4)Gal(b1-4)GlcNAc): -0.102
- glycan array binding signal (z-score) [39]: -0.066
- glycan array binding signal (z-score) [40]: -0.118
- glycan array binding signal (z-score) (Gal(a1-4)GlcNAc): -0.131
- glycan array binding signal (z-score) (Gal(a1-6)Glc): -0.1
- glycan array binding signal (z-score) (Gal(b1-2)Gal): -0.113
- glycan array binding signal (z-score) (Gal(b1-3)Gal): -0.118
- glycan array binding signal (z-score) (Gal(b1-3)Gal(b1-4)GlcNAc): -0.12
- glycan array binding signal (z-score) [41]: -0.089
- glycan array binding signal (z-score) (Gal(b1-3)GalNAc): -0.119
- glycan array binding signal (z-score) [42]: -0.128
- glycan array binding signal (z-score) [43]: -0.114
